Hit rate of the full screen: of about 52,000 compounds, about 1,700 (3.3%) were called active. No stated cut-off is given here; in the data, active means survival mostly below about 52% (no sharp cut-off); inactive means mostly above about 56%. Some of the results follow.
tested on: Wild type; experiment: growth inhibition of S. aureus wild type versus tarO mutant, primary screen, teichoic acid synthesis inhibitors, RN4220, OD600 (AID 463173); details: S. aureus RN4220 wild type/DeltatarO growth, OD600, 18 h, stronger effect = lower value, screened at 18.75 µg/mL (by protocol)

Compound | survival
Cc1ccc(-c2nc3ccccc3[nH]2)cc1NC(=O)C(C)C | inactive: 110%
COc1ccccc1N1CCN(C(=O)c2nn(-c3ccc(C)cc3)c(=O)n(C)c2=O)CC1 | inactive: 83%
COCCCNC(=O)c1oc2c(c1C)-c1nn(Cc3cccc(Cl)c3)cc1CC2 | inactive: 85%
CC1Cc2cc(S(=O)(=O)N3CCN(c4ccccc4F)CC3)ccc2N1C(=O)C1CCC1 (centres undefined) | inactive: 66%
Cc1cc(F)ccc1S(=O)(=O)NCC(c1ccco1)S(=O)(=O)c1cccs1 (centres undefined) | inactive: 128%
CC(C)(C)OC(=O)N1CC=C2C(C1)C(c1cccc(F)c1)C(C#N)=C(N)C2(C#N)C#N (centres undefined) | inactive: 134%
CCOC(=O)c1ccc(Nc2c(-c3ccc(O)c(OC)c3)nc3nc[nH]n23)cc1 | inactive: 74%
COc1cc(NS(=O)(=O)c2ccc3c(c2)CCN3S(C)(=O)=O)cc(OC)c1 | inactive: 73%
Cc1cc2nnc(SCC(=O)Nc3ccc(F)c(Cl)c3)n2c2ccccc12 | inactive: 68%
CC1CCCC(C)N1C(=O)CN1CCC(O)(c2ccccc2)CC1 (centres undefined) | inactive: 112%
CCc1nn2c(=O)cc(COC(=O)c3cccc(NC(=O)c4ccccc4Cl)c3)nc2s1 | inactive: 71%
CCCn1ccc2c(OCC(=O)NCc3ccc(C)cc3)cccc2c1=O | inactive: 101%
CCc1ccc2c(c1)c(=O)c(S(=O)(=O)c1ccc(F)cc1)cn2CC(=O)Nc1ccc(C)cc1C | inactive: 131%
Cc1ccc(CNC(=O)C2CCCN(S(=O)(=O)c3cccc4nsnc34)C2)cc1 (centres undefined) | inactive: 130%
O=C(CSc1c2c(nc3ccc(Cl)cc13)CCCC2)N1CCN(c2cccc(Cl)c2)CC1 | inactive: 55%
COc1ccc(CNC(=O)c2cnc3sc(N4CCCC4)nn3c2=O)cc1OC | inactive: 68%
Cc1ccc2c(c1)C(c1ccc(F)cc1)N(C(=O)COc1ccc(Cl)cc1Cl)CC(=O)N2 (centres undefined) | inactive: 64%
CCN(CC)CCSc1nc2ccc(OC)cc2[nH]1 | inactive: 102%
CC1=Nc2ccccc2N=C(C)C1 | inactive: 115%
Cc1cccc(NC(=O)c2ccc(N(Cc3ccccc3)S(C)(=O)=O)cc2)c1 | inactive: 66%
CCN(CCCNC(=O)c1cc2c(=O)n(C)c3ccccc3c2s1)Cc1ccccc1 | inactive: 77%
Cc1cc2ncn(CCCCOc3ccccc3)c2cc1C | active: 20%
CC1CCC(NC(=O)c2ccc3c(c2)N(Cc2ccccc2)C(=O)c2ccccc2S3=O)CC1 (centres undefined) | inactive: 146%

Compound | survival
CCOC(=O)c1c(C)[nH]c(CCC(=O)Nc2cc(C)ccc2OC)c1C | inactive: 80%
COc1cc(-c2nnn(CC(=O)Nc3ccc(OC(F)(F)F)cc3)n2)cc(OC)c1OC | inactive: 92%
CCOC(=O)c1cccc(NC(=O)CN2C(=O)c3ccccc3Sc3ncccc32)c1 | inactive: 117%
COc1cc(NC(=O)CC2C(=O)N(c3ccc(Cl)cc3)C(=O)N2Cc2cccs2)cc(OC)c1 (centres undefined) | inactive: 80%
Cc1ccc(C(=O)NCc2ccc(N(C)C)cc2)cc1NC(=O)c1nsc2ccccc12 | inactive: 128%
CN1C(C(=O)Nc2ccc(F)cc2F)=CC(c2ccco2)=NS1(=O)=O | inactive: 87%
O=C(CSCc1ccccc1Cl)N1CCN(c2ccc(F)cc2)CC1 | inactive: 64%
Cc1nnc(NCc2ccccc2)c2c1nnn2Cc1ccccc1Cl | inactive: 90%
O=C(Cn1ncc2c1-c1ccccc1OC2)N1CCN(c2ccccc2F)CC1 | inactive: 77%
CCOC(=O)/C(C#N)=C/c1cc(Br)cs1 | inactive: 98%
CN1c2ccccc2Sc2cc(C=C(C#N)C#N)ccc21 | inactive: 108%
COc1ccccc1CNC(=O)C1CCCN(S(=O)(=O)c2ccc3c(c2)CCCN3C(C)=O)C1 (centres undefined) | inactive: 64%
Cc1cc2oc(C(=O)Nc3c(C(=O)Nc4ccccc4)oc4ccccc34)cc(=O)c2cc1C | inactive: 114%
Cc1cccc(C)c1NC(=O)c1oc2ccc3c(c2c1C)C(=O)CC(C)(C)O3 | inactive: 71%
Cc1cccn2c(=O)c(C(=O)NCCCN3CCCCC3C)c(O)nc12 (centres undefined) | inactive: 87%
COc1ccc(OCC(O)Cn2c(C(C)C)nc3ccccc32)cc1 (centres undefined) | inactive: 107%
CCc1ccc(-c2nn(CC(=O)Nc3ccccc3)c3c2cnc2ccc(F)cc23)cc1 | inactive: 78%
COc1ccc(N2CCN(C(=O)c3cn(CC(C)C)c(=O)c4c3c3ccccc3n4C)CC2)cc1 | inactive: 73%
O=C(Cn1c(=O)c2cccn2c2ccccc21)Nc1cc(F)ccc1F | inactive: 71%
CCOC(=O)c1cc(-c2ccccc2)n(-c2cccc(C(=O)Nc3ccc(OC)cc3)c2)c1C | inactive: 77%
CCOc1ccc(N(C(=O)Cn2nnc3ccccc32)C(C(=O)NCc2ccccc2)c2ccc(OC)cc2)cc1 (centres undefined) | inactive: 83%
CC(C)(C)C1CCc2c(sc(NC(=O)Cn3nnc(-c4ccccc4F)n3)c2C#N)C1 (centres undefined) | inactive: 85%
CC(=O)N1CCCc2cc(S(=O)(=O)N3CCC(C(=O)NCc4ccc(C)cc4)CC3)ccc21 | inactive: 60%

Compound | survival
Cc1onc(-c2ccccc2Cl)c1C(=O)Oc1cc(F)cc(F)c1 | inactive: 82%
COC(=O)c1ccccc1NC(=O)Cn1c(=O)n(-c2cccc(OC)c2)c(=O)c2c(C)c(C(=O)N(C)C)sc21 | inactive: 121%
CCN(CC)c1nc(Nc2ccccc2)nc(Oc2ccc(=O)[nH]n2)n1 | inactive: 113%
CCC(C(=O)NCCc1ccc(SC)cc1)n1nc(C)c2sc3ccccc3c2c1=O (centres undefined) | inactive: 81%
COc1ccc(-c2[nH]ncc2C(=O)NCc2ccccc2C)cc1 | inactive: 72%
COc1ccc(OCC(=O)OCc2cc(=O)n3nc(C4CCCCC4)sc3n2)cc1 | inactive: 71%
CC(=O)Nc1cccc(NC(=O)C(=O)NCCc2sc(-c3ccccc3)nc2C)c1 | inactive: 81%
CCN(CC)CCNC(=O)c1cn(CC)c2ccc(S(=O)(=O)N3CCOCC3)cc2c1=O | inactive: 86%
Cc1ccc(CCNC(=O)Cn2nc(-c3ccc(C)cc3)ccc2=O)cc1 | active: -3%
Cc1ccc(C)c(NC(=O)CSc2ncc(S(=O)(=O)c3ccc(C)c(Cl)c3)c(=O)[nH]2)c1 | inactive: 65%
CSc1cccc(Nc2nc3c(S(=O)(=O)c4ccccc4)nnn3c3ccc(Cl)cc23)c1 | inactive: 84%
CNC(=S)N1CCN(C(=O)/C(=C/c2ccc(F)cc2)NC(C)=O)CC1 | inactive: 90%
O=C(Cn1ncc2ccc(Cl)cc21)NCc1ccc(F)cc1 | inactive: 116%
O=C(c1ccc2c(c1)N(Cc1ccc(F)cc1)C(=O)c1ccccc1S2=O)N1CCC(Cc2ccccc2)CC1 (centres undefined) | inactive: 92%
COc1ccccc1NC(=O)c1cccc(S(=O)(=O)N2CCCCCC2)c1 | inactive: 69%
COc1ccc(Cn2c(SCc3ccc(C(=O)NC(C)C)cc3)nc3cccnc32)cc1 | inactive: 73%
CCc1ccc(CNC(=O)c2ccc(NC(=O)N3CCCCc4ccccc43)cc2)cc1 | inactive: 84%
O=c1ccnc(NCCc2ccccc2)[nH]1 | inactive: 113%
Cc1ccc(C(=O)Nc2cccc(C(=O)O)c2)cc1S(=O)(=O)N1CCCC1 | inactive: 90%
Cc1c(Cl)cccc1NC(=O)Nc1nnc(N2CCCCCC2)s1 | inactive: 86%
C=C(C)CSc1nc2sc3c(c2c(=O)n1-c1ccccc1)CC(C(C)C)OC3 (centres undefined) | inactive: 72%
NC(=O)CSc1nc2cc(Cl)ccc2s1 | inactive: 105%
CCC1CN(C(=O)N2CCC(C(=O)NCc3cccc(C)c3)CC2)c2ccccc2O1 (centres undefined) | inactive: 86%

Compound | survival
CCCCC(CC)CNC(=O)CN1C(=O)CSc2ccc(S(=O)(=O)N3CCOCC3)cc21 (centres undefined) | inactive: 72%
O=C(Cn1c(=O)nc(-c2ccccc2F)c2cc(Cl)ccc21)N1CCN(c2ccccc2F)CC1 | inactive: 71%
COc1ccc(CNC(=O)c2c3c(nc4ccccc24)C(=O)N(C2CCCCC2)C3)c(OC)c1 | inactive: 63%
COC(=O)c1scc(-c2ccc(C)cc2)c1S(=O)(=O)Nc1cc(OC)c(OC)c(OC)c1 | inactive: 80%
CCOc1ccccc1N(CC)C(=O)c1cc2c(=O)[nH]c3ccc(C)cc3c2s1 | inactive: 98%
Cc1ccc(N2C(=O)C3CN4CCCN4C3C2=O)cc1 (centres undefined) | inactive: 99%
Cc1ccc(NC(=O)/C(C#N)=C/c2ccc(C(C)C)cc2)cc1C | inactive: 76%
Clc1cccc(-n2ncc3c(N4CCCCC4)ncnc32)c1 | inactive: 128%
O=C(Cn1cc(S(=O)(=O)Cc2cccc(Cl)c2)c2ccccc21)NCCc1ccccc1 | inactive: 71%
CC(=O)Nc1nonc1-c1nnc(SCC(=O)N(C)c2ccccc2)n1C | inactive: 83%
COc1cc2c3c(c1OC)C1(C=CC(=NNC(N)=O)C=C1)CC3N(C(C)=O)CC2 (centres undefined) | inactive: 99%
CCN(c1cccc(C)c1)S(=O)(=O)c1ccc2[nH]cc(C(=O)NCCCOC)c(=O)c2c1 | inactive: 76%
O=C(O)C1C2C=CC(C2)C1C(=O)NCc1cccs1 (centres undefined) | inactive: 113%
COc1ccc(CNC(=O)C(=O)Nc2ccc(OC)cc2OC)cc1 | inactive: 80%
CCOC(=O)c1cnc2c(C)c(Cl)ccc2c1NCCc1ccccc1 | active: -3%
CCOc1ccc(CCNC(=O)CN2C(=O)COc3ccc(S(=O)(=O)N4CCCC4)cc32)cc1 | inactive: 90%
Cc1ccc(C(C)C)c(OCC(O)CN2CCN(c3ccccc3F)CC2)c1 (centres undefined) | active: -3%
Cc1ccc(NC(=O)CCC(=O)N2Cc3ccccc3Oc3ncccc32)c(C)c1 | inactive: 80%
CC(C)c1ccc(C2NC(=O)c3n[nH]c(-c4cccs4)c32)cc1 (centres undefined) | inactive: 89%
COc1ccc(Cl)cc1S(=O)(=O)NCc1ccc2c(c1)CCN2C(=O)c1cccc(C)c1 | inactive: 128%

Reference: PubChem BioAssay AID463173 (ICCB-Longwood Screening Facility, Harvard Medical School, 2010)
